Laboratory results published in PubChem BioAssay (NCI).
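Step 1: Grow cells in 96-well plates. Step 2: Expose to compound for 48 hours at 5 concentrations. Step 3: Interpolate endpoints linearly; if unreached, use highest concentration. Here, GI50 denotes the concentration required for 50% inhibition of growth. TGI marks complete inhibition of growth.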

These compounds were tested on NCI-H322M lung (assay: NCI anticancer screen, dose series, 48 h).

Structure (SMILES) | TGI | GI50
CC(=O)c1ccc(Nc2c3ccccc3nc3occc23)cc1 | 58.9 µM | –
CC(C)OP(=O)(OC(C)C)C(C)(C)O | > 100 µM | –
COc1ccc(/C=C\c2cc(OC)c(OC)c(OC)c2)cc1 | > 100 µM | –
COc1cc(N(C)C)c(OC)cc1C=C1C=CC=C1 | > 100 µM | –
COC(=O)/C=C\C(C#N)(C#N)N=Cc1ccc(OC)cc1 | > 58.7 µM | –
CN(CCc1ccccn1)c1ccc2c(c1)C(=O)c1ccccc1-2 | > 100 µM | –
CC(C)OP(=O)(O)c1ncc(-c2ccc(C(F)(F)F)cc2)c(NC2CCCCCC2)n1 | > 100 µM | > 100 µM
COc1ccc2nc3ccc(OC)cc3c(SCCCl)c2c1 | > 100 µM | –
CSc1nc(=O)cnn1C | > 100 µM | –
CN1CCC(C(O)(c2ccccc2)c2ccc(Br)cc2)CC1 (centres undefined) | 93 µM | –
COC(=O)C(=O)Nc1cc2c3c(c1)Oc1cccc4c1C3(C)c1c(cccc1O2)O4 | > 100 µM | –
Nn1c(-c2ccc(Cl)cc2)nc2c(-c3ccc(Cl)cc3)nc3ccc(Cl)cc3c2c1=O | > 100 µM | 73.2 µM
CCn1c(-c2nonc2N)nc2cnc(Oc3cccc(NC(=O)c4ccc(N(C)C)cc4)c3)cc21 | > 25 µM | 3.03 µM
O=c1c(Sc2c(SCSc3cnc4ccccc4c3Sc3c[nH]c4ccccc4c3=O)cnc3ccccc23)c[nH]c2ccccc12 | > 100 µM | –
Clc1ccc(CN2CCCN(Cc3ccc(Cl)cc3)C2c2cc3ccccc3c3ccccc23)cc1 | > 100 µM | –
CCOC(=O)/C(=C\c1ccc2ccccc2c1)P(=O)(OCC)OCC | 17.1 µM | 4.28 µM
O=[N+]([O-])c1cccc2nccc(NCCN3CCOCC3)c12 | > 39.5 µM | –
COc1cc(/C=C2\SC(N3CCCCC3)=NC2=O)ccc1OCCCCCCOc1ccc(/C=C2\SC(N3CCCCC3)=NC2=O)cc1OC | 43.2 µM | 11.7 µM
C=C1CC[C@H]2C(C)=CC[C@H]3C(=C)C(=O)O[C@@H]3[C@@H]12 | > 100 µM | –
O=C1NC(N/N=C\c2ccccc2)=N/C1=C/c1ccccc1 | > 100 µM | –
Cc1cc(S(N)(=O)=O)c(S/C(=N\NS(=O)(=O)c2ccccc2)c2ccc(Cl)cc2)cc1Cl | > 100 µM | 64.3 µM
C#C[C@]1(O)CC[C@H]2[C@@H]3CCc4cc(O)ccc4[C@H]3CC[C@@]21C | > 100 µM | –
Cc1ccc(S(=O)C(C)C(Cl)c2ccccc2)cc1 (centres undefined) | > 100 µM | –
CC(C)(C)OC(=O)CCCCCNC(=O)CCCCCNC(=O)CCC(CN(CC(=O)OCc1ccccc1)CC(=O)OCc1ccccc1)N(CC(=O)OCc1ccccc1)CC(=O)OCc1ccccc1 (centres undefined) | > 100 µM | –

Structure (SMILES) | TGI | GI50
Cc1cn(C2CC(N=[N+]=[N-])C(COP(=O)(O)OCC3OC(n4cc(F)c(=O)[nH]c4=O)CC3O)O2)c(=O)[nH]c1=O (centres undefined) | > 100 µM | –
COc1cc(OC)c2c(=O)c3cccc([N+](=O)[O-])c3n(C)c2c1 | > 100 µM | –
CC(Cn1c2c(c3cc(O)ccc31)CCc1ccc(O)cc1-2)N(C)C (centres undefined) | 32.2 µM | –
CN(C)CCN1CCc2c([nH]c3ccccc23)C1c1cccnc1 (centres undefined) | > 100 µM | –
COc1ccc(C2Cc3cc(OC)c(OC)c(OC)c3C2)cc1 (centres undefined) | > 100 µM | –
CN1CC[C@H](c2c(O)cc(O)c3c(=O)cc(-c4ccccc4Cl)oc23)[C@H](O)C1 | > 10 µM | 0.0318 µM
CC1(C)N=C(N)N=C(N)N1c1cccc(CCc2ccccc2)c1 | > 100 µM | 0.673 µM
O=[N+]([O-])c1ccc(N=Nc2c(O)[nH]c3ccccc23)c([N+](=O)[O-])c1 | > 100 µM | –
COc1ccc2c(c1OC)O/C(=C\c1ncc([N+](=O)[O-])n1C)C2=O | > 100 µM | > 36.2 µM
O=[N+]([O-])/C(Cl)=C(/C(Cl)=C(Cl)Cl)N1CCOCC1 | 32.2 µM | –
COc1cc2cc(C(=O)N3CC(CCl)c4ccc([N+](C)(C)Cc5ccccc5[N+](=O)[O-])cc43)[nH]c2c(OC)c1OC (centres undefined) | > 100 µM | –
CC(=O)/C(=C\I)c1ccccc1 | 25.3 µM | –
CCN(c1ccccc1)[C@H]1C(=O)N(c2ccc([N+](=O)[O-])cc2)[C@H]1c1ccc(OC)cc1 | > 100 µM | –
CC1(C)OC(=O)C(=C2CCC(C(=O)Nc3cccc(C(F)(F)F)c3)N2)C(=O)O1 (centres undefined) | > 100 µM | –
CNC(=O)OCc1nc(SC)n(C)c1COC(=O)NC | 514 µM | –
Cc1ccc(S(=O)(=O)N2CCNCCN(S(=O)(=O)c3ccc(C)cc3)CCNCC2)cc1 | 63.7 µM | –
CC1(C)C2CCC13C(=O)C1OC3(C2)C2C(=O)c3c(ccc4c3ccc3ccccc34)C(=O)C12 (centres undefined) | > 100 µM | > 84 µM
CC(C)(C)O/N=C/c1cc(NC(=S)c2ccsc2)ccc1Cl | 53.7 µM | –
COc1ccccc1NC(=O)C1=C(C)NC(C)=C(C(=O)Nc2ccccc2OC)C1c1ccco1 | > 100 µM | –
C=C1C(=O)O[C@H]2C1C[C@H](O)[C@@]1(C)OC1CC[C@@]1(C)O[C@H]21 (some centres undefined) | > 100 µM | –
CC(C)(O)c1cc2c(cc1C(C)(C)O)-c1ccccc1-2 | > 100 µM | –
COc1cc([C@@H]2c3cc4c(cc3[C@@H](NCc3cccc(C#N)c3)C3COC(=O)[C@@H]32)OCO4)cc(OC)c1O (some centres undefined) | > 100 µM | –
COc1cc(-c2nn(-c3cccc(NC(=O)CCNc4ccc(N5CCOCC5)cc4)c3)cc2-c2ccncc2)ccc1Cl | > 100 µM | 3.25 µM
Nc1nc(SCC(=O)c2ccc(Br)cc2)c2[nH]cnc2n1 | > 100 µM | –
